Results from paper PMC8354638.
These are yes or no findings as the source states them, for the method shown. In cells and extracts the contact can be indirect. Some binding calls cover weakened binding; strength is not graded here. Where a sequence is shown, tags or fusion partners need not be part of it.

Tests used:
Assay in all cases: co-IP; transfected 293T cell lysates (modified EBC buffer), IP with GFP antibody beads, western blot with Myc, GFP, FOP or VPRBP antibodies
[1] = target: T1, GFP-CEP78 C-terminus (aa395-722) (human) (UniProt Q5JTW2)
T1 sequence: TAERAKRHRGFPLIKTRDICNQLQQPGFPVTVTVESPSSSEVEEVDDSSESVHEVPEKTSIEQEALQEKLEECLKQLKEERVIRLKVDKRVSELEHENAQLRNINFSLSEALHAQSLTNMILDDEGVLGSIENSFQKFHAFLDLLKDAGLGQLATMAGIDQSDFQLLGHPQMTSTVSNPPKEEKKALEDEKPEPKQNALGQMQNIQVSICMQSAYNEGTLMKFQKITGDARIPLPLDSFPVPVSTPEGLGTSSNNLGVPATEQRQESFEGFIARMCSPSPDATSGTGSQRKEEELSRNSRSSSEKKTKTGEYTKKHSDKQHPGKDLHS

[2] = target: T2, GFP-CEP78 N-terminus plus middle (aa2-403) (human) (UniProt Q5JTW2)
T2 sequence: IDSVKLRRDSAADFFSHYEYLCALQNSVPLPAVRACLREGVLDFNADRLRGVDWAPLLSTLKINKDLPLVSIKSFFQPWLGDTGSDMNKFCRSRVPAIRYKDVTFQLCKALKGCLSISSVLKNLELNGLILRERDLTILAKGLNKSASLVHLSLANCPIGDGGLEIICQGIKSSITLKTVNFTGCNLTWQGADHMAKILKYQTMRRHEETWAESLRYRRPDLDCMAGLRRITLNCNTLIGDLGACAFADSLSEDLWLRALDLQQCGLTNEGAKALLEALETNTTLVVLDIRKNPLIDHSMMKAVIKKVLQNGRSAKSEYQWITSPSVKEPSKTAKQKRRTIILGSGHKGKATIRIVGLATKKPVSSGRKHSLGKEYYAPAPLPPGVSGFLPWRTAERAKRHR

[3] = target: T3, GFP-CEP78 middle (aa203-403) (human) (UniProt Q5JTW2)
T3 sequence: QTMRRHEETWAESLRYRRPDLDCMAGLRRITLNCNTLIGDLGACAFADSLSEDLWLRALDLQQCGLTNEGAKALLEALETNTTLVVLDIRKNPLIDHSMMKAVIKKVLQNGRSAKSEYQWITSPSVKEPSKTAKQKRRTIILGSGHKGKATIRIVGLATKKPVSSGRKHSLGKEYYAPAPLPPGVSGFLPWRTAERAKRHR

[4] = target: T4, GFP-CEP78 N-terminus (aa2-217) (human) (UniProt Q5JTW2)
T4 sequence: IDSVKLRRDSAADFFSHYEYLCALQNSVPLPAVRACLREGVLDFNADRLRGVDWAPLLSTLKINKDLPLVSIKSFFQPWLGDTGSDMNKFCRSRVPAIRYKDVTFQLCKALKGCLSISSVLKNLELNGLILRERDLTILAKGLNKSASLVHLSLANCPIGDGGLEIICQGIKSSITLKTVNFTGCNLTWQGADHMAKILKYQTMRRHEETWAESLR

[5] = target: T5, GFP-CEP78 (human) (UniProt Q5JTW2)
T5 sequence: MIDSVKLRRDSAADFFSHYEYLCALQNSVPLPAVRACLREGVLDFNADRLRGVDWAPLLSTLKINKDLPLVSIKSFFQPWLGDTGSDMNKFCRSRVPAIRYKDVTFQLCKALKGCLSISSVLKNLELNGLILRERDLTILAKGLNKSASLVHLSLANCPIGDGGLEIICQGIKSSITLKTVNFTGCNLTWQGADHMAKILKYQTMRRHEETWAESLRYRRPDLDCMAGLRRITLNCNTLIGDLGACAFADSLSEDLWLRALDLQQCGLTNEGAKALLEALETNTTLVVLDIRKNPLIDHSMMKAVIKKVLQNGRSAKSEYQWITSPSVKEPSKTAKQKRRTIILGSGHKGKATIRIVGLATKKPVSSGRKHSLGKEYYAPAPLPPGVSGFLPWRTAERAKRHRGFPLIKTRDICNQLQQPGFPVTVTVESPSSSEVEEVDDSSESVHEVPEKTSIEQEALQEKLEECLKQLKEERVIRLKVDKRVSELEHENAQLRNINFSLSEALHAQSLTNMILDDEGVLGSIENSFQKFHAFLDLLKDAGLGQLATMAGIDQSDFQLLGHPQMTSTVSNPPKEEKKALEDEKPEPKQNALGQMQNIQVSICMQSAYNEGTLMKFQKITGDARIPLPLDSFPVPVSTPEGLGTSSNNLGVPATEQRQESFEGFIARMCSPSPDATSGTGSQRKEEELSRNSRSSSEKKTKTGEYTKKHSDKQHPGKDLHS

binding [1]: binds
binding [2]: binds weakly
binding [3]: no binding
binding [4]: no binding
binding [5]: binds
B1: Myc-CEP350 N-terminus (aa1-983) (domain or fragment, UniProt Q5VT06 1-983)
chain: MRSSKSKEVPLPNPRNSQSKDTVQADITTSWDALSQTKAALRHIENKLEVAPTSTAVCDSVMDTKKSSTSATRKISRKDGRYLDDSWVNAPISKSTKSRKEKSRSPLRATTLESNVKKNNRVEFREPLVSYREIHGAPSNFSSSHLESKHVYCVDVNEEKTESGNWMIGSREERNIRSCDFESSQSSVINDTVVRFLNDRPAIDALQNSECLIRMGASMRTEEEMPNRTKGSENNLKLSVNNMAHDTDPKALRLTDSSPSSTSTSNSQRLDILKRRQHDVKLEKLKERIRKQWEHSEETNGRGQKLGHIDHPVMVVNVDNSVTAKVRKVATAPPAPAYKGFNPSETKIRTPDGKVWQEAEFQNMSRELYRDLALHFADDISIKEKPAEKSKEKKVVKPVRKVQKVAQLSSTECRTGSSHLISTSSWRDGQKLVKKILGPAPRMEPKEQRTASSDRGGRERTAKSGGHIGRAESDPRLDVLHRHLQRNSERSRSKSRSENNIKKLASSLPDNKQEENTALNKDFLPIEIRGILDDLQLDSTAHTAKQDTVELQNQKSSAPVHAPRSHSPVKRKPDKITANEDPPVISKRRHYDTDEVRQYIVRQQEERKRKQNEEKKAQKEATEQKNKRLQELYRKQKEAFTKVKNVPPSEPSATRRLQETYSKLLLEKTLLEEPSHQHVTQETQAKPGYQPSGESDKENKVQERPPSASSSSDMSLSEPPQPLARKDLMESTWMQPERLSPQVHHSQPQPFAGTAGSLLSHLLSLEHVGILHKDFESILPTRKNHNMASRPLTFTPQPYVTSPAAYTDALLKPSASQYKSKLDRIEALKATAASLSSRIESEAKKLAGASINYGSAWNTEYDVQQAPQEDGPWTKAVTPPVKDDNEDVFSARIQKMLGSCVSHATFDDDLPGVGNLSEFKKLPEMIRPQSAISSFRVRSPGPKPEGLLAQLCKRQTDSSSSDMQACSQDKAKISLGSSIDSVS
